Measured values from PubChem BioAssay (NCATS).
This list was built around the results that the source calls inconclusive (neither active nor inactive); the mix of calls is not that of the screen. Active and inactive are the calls of the source. Calls come from the whole dose curve; as a rule, active = well fitted curve in either direction with a large enough effect (not every such curve was filed as active); inconclusive = small, poorly fitted or top-dose-only effect, or another doubt; inactive = flat fitted curve, though single readings scatter.

Assay: NFAT Signaling Pathway (AID 444);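 note: carbachol stimulus at about its EC50 of 1 µM final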
Settings: Jurkat NFAT-bla M1, carbachol, beta-lactamase ratio, 5 h; at 17.2 µM (top of the series) unless noted
Method in brief: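 Jurkat cells carrying an NFAT-driven β-lactamase reporter and co-transfected muscarinic M1 receptor were treated with compound plus carbachol (1 uM final, an EC50 level) for 5 h at 37 °C. CCF4 loading followed for 1 h at RT; 460/530 nm ratio gave %activity.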
% is set by controls: 0 for no effect and ±100 for the full control effect.

Compound | activity change, negative = inhibition
CCOC(=O)c1[nH]c2ccc(OC)cc2c1NC(=O)CCN1CCN(Cc2ccccc2)CC1 | inconclusive: -59.2% [inhibitor]
CCCc1cc(=O)oc2c(CN3CCN(C)CC3)c(O)c(Cl)cc12 | inconclusive: 50.2% [activator]
Cc1ccc(-n2ncc3c(NCCCOC(C)C)ncnc32)c(C)c1 | inactive: 25.7%
COc1cccc(Cn2c(=O)c(C)nc3cnc(Nc4ccccc4)nc32)c1 | inconclusive: 33.2% [activator] [at 7.69 µM]
CCc1cc(=O)oc2c(CN3CCCC3)c(O)c(Cl)cc12 | inconclusive: 34.1% [activator]
CC(C)(C)c1ccc(O)c(CN(Cc2cc(C(C)(C)C)ccc2O)c2ccccc2)c1 | inconclusive: 37.6% [activator] [at 7.69 µM]
COc1ccc(Cc2ccccc2C(=O)O)c2ccccc12 | inconclusive: 359% [activator] [at 7.69 µM]
COc1cccc(Cn2c(NCC(C)C)nc3c2c(=O)n(C)c(=O)n3C)c1 | inactive: -1.36%
Cc1onc(-c2ccccc2Cl)c1C(=O)N1CCN(c2nc3ccccc3s2)CC1 | inactive: -4.08%
O=S(=O)(c1ccccc1)N1CCC2(CCCN(Cc3nccs3)C2)CC1 | inconclusive: -63.4% [inhibitor] [at 7.69 µM]
CC1(C)Cc2c(sc3c4nnnn4c4nnnn4c23)CO1 | active: -96.8%
Cc1ccc(OCC(=O)N(C)CCc2ccccn2)cc1 | inactive: 5.19%
c1ccc(/C(=N/Nc2nc3ccccc3s2)c2ccccn2)cc1 | inconclusive: -72.9% [inhibitor] [at 7.69 µM]
CC(=O)C1=C(O)C(=O)N(c2cccc(C(=O)O)c2)C1c1ccc(F)cc1 (stereo not given) | inactive: 2.04%
COc1ccccc1NC(=O)C1=C(C)NC(SCC(=O)c2ccc(C)cc2)=C(C#N)C1c1ccco1 (stereo not given) | inconclusive: -68.6% [inhibitor]
Cn1cc(Br)cc2nc(C(F)(F)F)nc1-2 | inactive: -3.67%
Cc1c(/C(O)=C2\C(=O)C(=O)N(CCCN(C)C)C2c2ccccc2)cnn1-c1ccccc1 (stereo not given) | inconclusive: 14.4% [inhibitor]
CCN1CCN(c2nc3c(C)cccn3c(=O)c2/C=C(\C#N)S(=O)(=O)c2ccccc2)CC1 | inconclusive: -61.2% [inhibitor]
COc1ccc(C2=CC(c3ccc(C)cc3)n3nnnc3N2)cc1 (stereo not given) | inconclusive: 480% [activator]
COc1ccc(C2Nc3ccccc3C(=O)N2Cc2ccco2)cc1CN1C(=O)c2ccccc2C1=O (stereo not given) | inactive: -14.1%

Compound | activity change, negative = inhibition
O=C(NC1CCS(=O)(=O)C1)c1c(NC(=O)C2COc3ccccc3O2)sc2c1CCCC2 (stereo not given) | inactive: -18.5%
Cc1c(O)c(CN2CCCCC2)cc2c3c(c(=O)oc12)CCC3 | inconclusive: -31.3% [inhibitor]
N/C(=N\c1nc2ccccc2o1)NC(=O)c1ccccc1NC(=O)c1ccccc1 | inactive: -14.2%
O=C(O)[C@@H]1[C@@H](C(=O)O)[C@]23C[C@@]2(C(=O)O)[C@]2(C(=O)O)CCC3=C3CCCC312 | inactive: 0.691% [at 7.69 µM]
O=C(c1cccc(F)c1)N1CCC[C@@]2(CCN(c3ccccc3)C2)C1 | inconclusive: -63.5% [inhibitor] [at 7.69 µM]
CCC1(C)Cc2c(sc3c2c(=O)n(C)c2nnc(SCc4ccccc4)n32)CO1 (stereo not given) | inconclusive: -45.2% [inhibitor]
Cc1nc(N2CCN(C(=O)c3ccc(Cl)cc3)CC2)c(C#N)c2c1COC(C)(C)C2 | inconclusive: -33.8% [inhibitor]
CC(C)CNC(=O)c1c(N)n(/N=C/c2ccccn2)c2nc3ccccc3nc12 | inconclusive: -39.7% [inhibitor]
c1ccc(N2CCN(c3nc(NCc4ccco4)c4ccccc4n3)CC2)cc1 | inconclusive: -105% [inhibitor]
Cc1noc(C)c1C(=O)N1CCC2(CC1)CN(c1ccccn1)C2 | inconclusive: -32% [inhibitor] [at 7.69 µM]
C[N+](C)(C)[C@@H](C1=CCCC1=O)c1ccccc1 | inconclusive: -63.2% [inhibitor] [at 7.69 µM]
CCOC(=O)C1CCCN(c2nc3ccccc3nc2C(C#N)C(=O)OCCOC)C1 (stereo not given) | inactive: -3.48%
Cc1nnc2c(NC(C)C)nc3ccccc3n12 | inconclusive: -45.6% [inhibitor]
N#CCSc1nc2c(cc1C#N)CCCCCC2 | inconclusive: -79.8% [inhibitor]
N#Cc1nc(COc2ccc(Br)cc2)oc1N1CCN(Cc2ccccc2)CC1 | inconclusive: -55% [inhibitor]
Cn1c(=O)[nH]c(=O)c2c1nc(Br)n2CCSc1nnnn1-c1ccccc1 | inactive: 1.39%
CCOC(=O)CC(C#N)c1cn(C)c2ccccc12 (stereo not given) | inactive: -8.09%
CCN(CC)Cc1cc(C(C)=O)ccc1OCC(C)C | inconclusive: -31.8% [inhibitor]
C=CCOc1nc2c(c(=O)n(C)c(=O)n2C)n1Cc1c(Cl)cccc1Cl | inconclusive: -42.1% [inhibitor]
COc1cccc(-c2nc(NCCN3CCOCC3)c3ccccc3n2)c1O | inconclusive: -30.5% [inhibitor]
